Test results published in PubChem BioAssay (NCI).
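In this assay, cells in 96-well plates receive the compound at five concentrations for 48 hours. Endpoints are linearly interpolated between the surrounding concentrations. At the GI50, growth is halved. TGI marks complete inhibition of growth.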

Tested on: NCI-H322M lung
Assay: growth of human tumour cells (NCI), 48 h

SMILES: O=C1Nc2cc(-c3ccc(NS(=O)(=O)c4ccc(-c5ccccc5)cc4)cc3)ccc2/C1=C/c1ccc[nH]1
- GI50: 2.14 µM
- TGI: 15.4 µM
